# Source: PubChem BioAssay (NCATS)
# Where “and” joins values, the source holds several entries; their conditions need not be identical. Identical values can stand only once. This list was built around the results that the source calls inconclusive (neither active nor inactive); the mix of calls is not that of the screen. For some assays here: A potency beside an inconclusive call is a rough fit, not a confirmed value. For some assays here: A note “side channel” means that the fit belongs to a control or component signal, not to the main read-out. Calls of active or inactive are those of the source. Unless noted, the call rests on the fitted dose curve; in most records, active means well fitted curve in the direction sought with a large enough effect; inconclusive means small, poorly fitted or top-dose-only effect, or another doubt; inactive means no such curve, though single readings can be large; an effect the other way counts as inactive or inconclusive.
# Experiments:
# [1] = molecular target: Chromobox protein homolog 1 (Homo sapiens) (UniProt P83916); experiment: qHTS Validation Assay for Inhibitors of HP1-beta Chromodomain Interactions with Methylated Histone Tails (AID 488953); further: nearly all actives have a fitted effect of over 50% in size; further: potency means the concentration at half of the fitted maximal effect
# Procedure, shortened: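 AlphaScreen proximity readout: streptavidin donor and Ni-chelate acceptor beads, 10 ug/mL final, 30 min dark, RT. Complex of 50 nM HP1-beta and 50 nM b-H3(1-18)K9me3 formed 30 min, then compound-treated 30 min; PBS pH 7.4/0.01% Tween-20.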
# [2] = molecular target: Transient receptor potential cation channel subfamily V member 1 (Homo sapiens) (UniProt Q8NER1); experiment: HTS Assay for Compounds that Act as Enhancers of the Vanilloid Receptor 1 (AID 488979); further: potency means the concentration at half of the fitted maximal effect
# Procedure, shortened: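 TRPV1 cells loaded with Fluo-8 calcium dye; compound added and Ca2+ signal (ex 480/em 520 nm) followed 3 min, then capsaicin at EC20 added and read 2 more min to detect enhancement.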
# [3] = Validation screen for small molecules that induce DNA re-replication in SW480 colon adenocarcinoma cells (AID 504364); further: potency means the concentration at half of the fitted maximal effect
# Procedure, shortened: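 Read-out: total Hoechst intensity of nuclei by fluorescence scanning imager; hits raise the fraction of nuclei with elevated DNA content. Cells received compound for 48 hr at 37 C before a 40 min stain.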
# [4] = molecular target: Peptidyl-prolyl cis-trans isomerase NIMA-interacting 1 (Homo sapiens) (UniProt Q13526); experiment: qHTS Validation Assay to Find Inhibitors of Pin1 (AID 504536; active means well fitted inhibition curve with a large enough effect in the polarisation, with a control signal flat, not every such curve was filed as active; inconclusive means small, poorly fitted or top-dose-only effect, or effect the other way; the % refers to the polarisation; further: potency means the concentration at half of the fitted maximal effect)
# Procedure, shortened: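 Fluorescence polarization competition: compounds (titration) displace HiFluor-488-labeled Pin1-1b peptide from Pin1 (0.3 uM final) in pH 7.5 HEPES buffer with DTT, 10 min at room temperature; %Activity normalized to no-enzyme wells, curves fitted.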
# [5] = molecular target: Ubiquitin carboxyl-terminal hydrolase 1 (Homo sapiens) (UniProt O94782); experiment: Inhibitors of USP1/UAF1: Pilot qHTS (AID 504865); further: potency means the concentration at half of the fitted maximal effect;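 further: rhodamine fluorescence freed from ubiquitin-rhodamine substrate followed over time; nearly all actives have a fitted effect of over 35% in size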
# Procedure, shortened: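 In 50mM HEPES pH 7.8 containing 0.5mM EDTA, 1mM TCEP, 0.1 mg/ml BSA and 0.01% Tween-20, 1nM USP1/UAF1 is exposed to compound for 15 min, then Ub-Rho (150nM final) is added and fluorescence is read over time.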
# [6] = qHTS for Inhibitors of ATXN expression: Validation of Cytotoxic Assay (AID 588349); further: potency means the concentration at half of the fitted maximal effect
# Procedure, shortened: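 Cytotoxicity counter-screen: HEK293 cells exposed to compound titrations, 72 hr, 37 degrees C. Read-out is intracellular ATP (CellTiter Glo luminescence) as a viability measure.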
# [7] = molecular target: ATPase family AAA domain-containing protein 5 (Homo sapiens) (UniProt Q96QE3); experiment: Validation screen for small molecules that inhibit ELG1-dependent DNA repair in human embryonic kidney (HEK293T) cells expressing luciferase-tagged ELG1 (AID 493107); settings: HEK293T ELG1-luciferase level, luminescence, 5-fluorouridine co-treatment, 16 h; series mostly up to 46.1 µM; further: nearly all actives have a fitted effect of over 70% in size; further: potency means the concentration at half of the fitted maximal effect
# Procedure, shortened: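 ELG1-luciferase HEK293T reporter; 5-fluorouridine + compound/DMSO, 16 hr, 37 °C, 5% CO2; ONE-Glo 30 min RT; luminescence read, qHTS format.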
# [8] = qHTS for Inhibitors of ATXN expression: Validation (AID 588378); further: nearly all actives have a fitted effect of over 75% in size; further: potency means the concentration at half of the fitted maximal effect
# Procedure, shortened: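 Compounds were pinned onto attached HEK293 cells carrying an ATXN2-firefly luciferase construct and incubated 24 hrs at 37 degrees C. Each well then received a fluorescent viability reagent followed by luciferase substrate for end-point luminescence.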
# [9] = Nrf2 qHTS screen for inhibitors: Validation (AID 493153; active means well fitted inhibition curve with a large enough effect in the main read-out, with a control signal flat, not every such curve was filed as active; inconclusive means small, poorly fitted or top-dose-only effect, or effect the other way, or a change in a side signal; inactive means no such curve, though single readings can be large or run the other way)
# Procedure, shortened: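 Concentration-response test in A549 ARE_Fluc reporter cells (5% FBS OPTI-MEM), compound exposure 18-24 h at 37°C, 5% CO2. Cell viability measured first by CellTiter-Fluor fluorescence; ARE-driven luciferase luminescence then measured as Nrf2 activity.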
# [10] = molecular target: D(1A) dopamine receptor (Homo sapiens) (UniProt P21728); experiment: HTS Assay for Allosteric Agonists of the Human D1 Dopamine Receptor: Primary Screen for Agonists (AID 488981); further: potency means the concentration at half of the fitted maximal effect
# Procedure, shortened: (§1)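 Tetracycline-induced HEK293 Trex D1 cells with forced coupling to calcium, loaded with no-wash calcium dye; kinetic fluorescence read 180 s after compound addition for agonism, then a further 180 s after an EC20 dopamine challenge for potentiation.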
# [11] = molecular target: D(1A) dopamine receptor (Homo sapiens) (UniProt P21728); experiment: HTS Assay for Allosteric Agonists of the Human D1 Dopamine Receptor: Primary Screen for Potentiators (AID 488982)
# Procedure, shortened: as §1
# [12] = molecular target: Phosphoglycerate kinase, glycosomal (Trypanosoma brucei brucei) (UniProt P07378); experiment: qHTS Validation Assay to Find Inhibitors of Phosphoglycerate Kinase (AID 504547); further: potency means the concentration at half of the fitted maximal effect
# Procedure, shortened: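 Compounds are pinned into the substrate/PGK mixture, and GAPDH (100nM final) is added to start the reaction by producing 1,3-BPG. After 60 minutes at room temperature, Kinase-Glo Plus is added and luminescence is measured 10 minutes later.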
# [13] = Validation screen for small molecules that induce genotoxicity in human embryonic kidney (HEK293T) cells expressing luciferase-tagged ELG1 (AID 493106); further: potency means the concentration at half of the fitted maximal effect
# Procedure, shortened: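 qHTS format; 2,000 HEK293T ELG1-luc cells/well; 23 nL compound via pin tool; 16 hr, 37 °C/5% CO2; ONE-Glo, 30 min RT; luminescence read.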
# [14] = molecular target: phosphoglycerate mutase (Leishmania major) (UniProt Q4Q090); experiment: qHTS Validation Assay to Find Inhibitors of Phosphoglycerate Mutase (AID 504548); settings: Potency: inhibition qHTS; further: potency means the concentration at half of the fitted maximal effect
# Procedure, shortened: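 Inhibition of L. major PGAM was assessed by Kinase-GloPlus luminescence following a 45-minute room-temperature reaction with enzyme at 1.25nM final.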
# [15] = Inducers of the Endoplasmic Reticulum Stress Response (ERSR) in human glioma: Validation (AID 504836); further: potency means the concentration at half of the fitted maximal effect
# Procedure, shortened: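 Stably transfected U87-MG glioma cells carrying a GRP78-based luciferase sensor; 16 h compound incubation. Luminescence end-point read 10 min after Bright-Glo addition at room temperature.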
# Tags describe the fitted curve by direction and shape or compound fluorescence and quenching.
# Chain of UniProt Q8NER1 (Q8NER1 whole entry, looked up): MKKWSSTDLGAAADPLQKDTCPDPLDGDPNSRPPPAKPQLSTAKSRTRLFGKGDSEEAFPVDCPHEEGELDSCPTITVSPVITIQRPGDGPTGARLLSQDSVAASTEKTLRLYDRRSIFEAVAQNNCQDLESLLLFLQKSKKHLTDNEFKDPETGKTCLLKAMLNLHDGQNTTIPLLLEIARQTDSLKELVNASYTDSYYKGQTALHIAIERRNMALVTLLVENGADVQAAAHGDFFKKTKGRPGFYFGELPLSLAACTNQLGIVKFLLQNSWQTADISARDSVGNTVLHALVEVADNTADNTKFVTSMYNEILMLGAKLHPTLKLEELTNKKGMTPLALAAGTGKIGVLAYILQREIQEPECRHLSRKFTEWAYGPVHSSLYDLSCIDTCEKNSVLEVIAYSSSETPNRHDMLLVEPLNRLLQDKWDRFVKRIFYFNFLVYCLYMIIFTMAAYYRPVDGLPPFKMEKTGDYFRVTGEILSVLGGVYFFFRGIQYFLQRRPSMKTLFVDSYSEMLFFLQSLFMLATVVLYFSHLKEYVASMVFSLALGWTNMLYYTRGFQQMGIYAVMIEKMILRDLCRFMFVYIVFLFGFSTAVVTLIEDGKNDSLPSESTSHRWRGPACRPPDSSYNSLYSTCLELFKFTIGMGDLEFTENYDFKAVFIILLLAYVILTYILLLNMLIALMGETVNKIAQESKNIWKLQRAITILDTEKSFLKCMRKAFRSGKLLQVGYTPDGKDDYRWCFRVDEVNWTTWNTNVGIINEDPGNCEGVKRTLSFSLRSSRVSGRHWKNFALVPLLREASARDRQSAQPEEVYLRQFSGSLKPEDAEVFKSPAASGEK
# Chain of UniProt P83916 (P83916 whole entry, looked up): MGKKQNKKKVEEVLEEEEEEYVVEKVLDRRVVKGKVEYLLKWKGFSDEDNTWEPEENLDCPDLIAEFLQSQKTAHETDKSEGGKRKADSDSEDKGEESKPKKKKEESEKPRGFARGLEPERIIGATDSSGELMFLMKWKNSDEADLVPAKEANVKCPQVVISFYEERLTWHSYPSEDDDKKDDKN
# Chain of UniProt Q13526 (Q13526 whole entry, looked up): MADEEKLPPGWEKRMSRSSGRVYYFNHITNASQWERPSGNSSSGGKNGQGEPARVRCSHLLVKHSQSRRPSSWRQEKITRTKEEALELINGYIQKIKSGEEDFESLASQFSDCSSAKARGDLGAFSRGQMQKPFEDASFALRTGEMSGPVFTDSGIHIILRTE
# Chain of UniProt Q96QE3 (Q96QE3 whole entry, looked up, the tested form may be a part): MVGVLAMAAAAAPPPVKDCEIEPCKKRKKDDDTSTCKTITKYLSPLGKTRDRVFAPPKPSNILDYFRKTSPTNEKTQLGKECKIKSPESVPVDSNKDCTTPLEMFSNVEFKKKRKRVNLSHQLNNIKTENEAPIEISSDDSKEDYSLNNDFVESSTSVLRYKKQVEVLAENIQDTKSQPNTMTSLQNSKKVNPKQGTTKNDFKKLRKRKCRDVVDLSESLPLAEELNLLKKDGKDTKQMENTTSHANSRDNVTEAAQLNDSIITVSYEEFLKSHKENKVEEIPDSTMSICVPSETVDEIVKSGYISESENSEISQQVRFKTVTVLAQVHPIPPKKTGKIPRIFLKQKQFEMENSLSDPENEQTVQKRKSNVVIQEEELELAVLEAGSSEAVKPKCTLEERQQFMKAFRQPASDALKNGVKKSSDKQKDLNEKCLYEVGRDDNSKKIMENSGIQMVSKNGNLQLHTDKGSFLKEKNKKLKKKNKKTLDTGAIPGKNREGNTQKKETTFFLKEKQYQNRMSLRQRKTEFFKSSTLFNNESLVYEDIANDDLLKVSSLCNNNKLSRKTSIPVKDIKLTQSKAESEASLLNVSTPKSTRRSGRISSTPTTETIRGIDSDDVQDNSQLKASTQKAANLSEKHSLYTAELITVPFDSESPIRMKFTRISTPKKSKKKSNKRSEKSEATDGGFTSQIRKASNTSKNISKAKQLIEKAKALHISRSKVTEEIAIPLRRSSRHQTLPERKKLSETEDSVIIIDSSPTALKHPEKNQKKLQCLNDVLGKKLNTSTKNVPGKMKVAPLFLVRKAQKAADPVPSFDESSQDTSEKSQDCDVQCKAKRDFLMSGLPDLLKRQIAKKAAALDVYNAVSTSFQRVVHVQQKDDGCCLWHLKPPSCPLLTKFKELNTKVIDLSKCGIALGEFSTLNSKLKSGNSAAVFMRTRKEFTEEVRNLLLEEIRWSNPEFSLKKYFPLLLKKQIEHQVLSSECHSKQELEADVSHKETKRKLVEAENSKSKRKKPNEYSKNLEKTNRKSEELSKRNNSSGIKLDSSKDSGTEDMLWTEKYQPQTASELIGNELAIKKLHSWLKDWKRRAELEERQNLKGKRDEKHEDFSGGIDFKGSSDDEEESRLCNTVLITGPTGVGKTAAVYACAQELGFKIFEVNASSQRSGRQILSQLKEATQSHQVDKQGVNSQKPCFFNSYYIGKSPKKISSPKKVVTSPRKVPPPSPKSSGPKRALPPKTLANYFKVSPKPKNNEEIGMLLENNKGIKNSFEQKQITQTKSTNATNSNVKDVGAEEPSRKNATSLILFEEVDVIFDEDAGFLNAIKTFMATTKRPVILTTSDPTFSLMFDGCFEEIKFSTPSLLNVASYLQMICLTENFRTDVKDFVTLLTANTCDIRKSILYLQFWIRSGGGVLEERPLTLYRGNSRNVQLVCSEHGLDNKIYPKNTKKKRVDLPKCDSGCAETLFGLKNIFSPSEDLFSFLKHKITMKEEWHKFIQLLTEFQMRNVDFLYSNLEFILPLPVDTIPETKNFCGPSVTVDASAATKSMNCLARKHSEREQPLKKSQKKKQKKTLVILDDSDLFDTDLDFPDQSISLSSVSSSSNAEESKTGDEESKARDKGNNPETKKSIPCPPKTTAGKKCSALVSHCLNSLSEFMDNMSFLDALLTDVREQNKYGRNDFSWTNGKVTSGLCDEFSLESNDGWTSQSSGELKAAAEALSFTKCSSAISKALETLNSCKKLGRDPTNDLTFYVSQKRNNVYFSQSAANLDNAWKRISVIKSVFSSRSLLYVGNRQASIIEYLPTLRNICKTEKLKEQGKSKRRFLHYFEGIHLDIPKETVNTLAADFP
# Chain of UniProt O94782 (O94782 whole entry, looked up): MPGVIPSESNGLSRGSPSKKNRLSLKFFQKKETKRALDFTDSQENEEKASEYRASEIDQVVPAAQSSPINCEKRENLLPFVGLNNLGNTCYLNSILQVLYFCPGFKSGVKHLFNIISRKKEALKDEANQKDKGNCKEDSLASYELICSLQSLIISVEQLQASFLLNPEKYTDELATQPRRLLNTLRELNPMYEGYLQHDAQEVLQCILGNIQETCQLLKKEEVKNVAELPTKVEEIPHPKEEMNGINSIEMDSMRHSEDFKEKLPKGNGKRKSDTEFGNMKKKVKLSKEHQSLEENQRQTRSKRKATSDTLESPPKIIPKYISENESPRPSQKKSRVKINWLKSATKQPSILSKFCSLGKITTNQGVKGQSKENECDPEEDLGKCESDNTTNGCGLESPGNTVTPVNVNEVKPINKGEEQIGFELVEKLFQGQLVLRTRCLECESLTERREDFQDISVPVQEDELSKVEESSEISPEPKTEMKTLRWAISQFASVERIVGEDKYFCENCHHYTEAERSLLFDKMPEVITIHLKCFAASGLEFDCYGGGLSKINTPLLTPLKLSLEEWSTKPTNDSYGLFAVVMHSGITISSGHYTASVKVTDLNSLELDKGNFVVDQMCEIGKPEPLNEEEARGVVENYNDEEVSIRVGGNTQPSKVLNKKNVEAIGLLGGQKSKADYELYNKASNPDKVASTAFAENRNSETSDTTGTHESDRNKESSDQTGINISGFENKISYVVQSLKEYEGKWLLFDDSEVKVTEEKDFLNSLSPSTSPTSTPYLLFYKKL
# Chain of UniProt P21728 (P21728 whole entry, looked up): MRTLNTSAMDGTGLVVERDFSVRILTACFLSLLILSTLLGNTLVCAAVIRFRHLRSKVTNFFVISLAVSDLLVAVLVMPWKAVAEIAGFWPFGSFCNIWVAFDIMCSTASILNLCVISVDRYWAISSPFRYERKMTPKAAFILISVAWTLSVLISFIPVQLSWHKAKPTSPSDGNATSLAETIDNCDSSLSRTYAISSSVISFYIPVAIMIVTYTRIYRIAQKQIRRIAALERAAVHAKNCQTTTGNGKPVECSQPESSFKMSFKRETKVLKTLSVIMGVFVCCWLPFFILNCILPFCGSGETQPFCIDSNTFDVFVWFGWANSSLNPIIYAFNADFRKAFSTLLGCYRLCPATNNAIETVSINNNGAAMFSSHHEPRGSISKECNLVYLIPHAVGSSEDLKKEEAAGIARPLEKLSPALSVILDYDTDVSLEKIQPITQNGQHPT
smiles,measurement,setting,value
N#C/C(=C\c1ccc(O)c(O)c1)C(=O)Nc1ccccc1,Potency,[1],active: 12.6 µM
same,Potency,[2],inactive
same,Potency,[3],"inconclusive: 29.1 µM [activator, single point]"
same,Potency,[4],"inconclusive: 6.75 µM [quencher, side channel, partial curve]"
same,Potency,[5],"inconclusive: 63.1 µM [inhibitor, partial curve, poor fit]"
same,Potency,[6],"inconclusive: 35.5 µM [cytotoxic, single point]"
Oc1ccc(O)cc1,Potency,[1],"inconclusive: 56.2 µM [inhibitor, partial curve]"
same,Potency,[2],inactive
same,Potency,[7],"inconclusive: 20.6 µM [inhibitor, single point]"
same,Potency,[4],"inconclusive: 8.49 µM [falling, partial curve, poor fit]"
same,Potency,[6],"inconclusive: 39.8 µM [cytotoxic, single point]"
same,Potency,[8],"inconclusive: 39.8 µM [inhibitor, single point]"
NC(CCCP(=O)(O)O)C(=O)O (configuration not stated),Potency,[1],inactive
same,Potency,[7],inactive
same,Potency,[9],inactive
same,Potency,[4],inactive
CCC1(c2ccccc2)C(=O)NCNC1=O,Potency,[1],inactive
same,Potency,[3],inactive
same,Potency,[5],"inconclusive: 20 µM [inhibitor, partial curve, poor fit]"
same,Potency,[8],inactive
CCCNC(C)C(=O)Nc1ccccc1C (configuration not stated),Potency,[1],"inconclusive: 31.6 µM [inhibitor, single point]"
same,Potency,[6],"inconclusive: 31.6 µM [cytotoxic, partial curve, poor fit]"
CN1C2CCC1CC(OC(=O)C(O)c1ccccc1)C2 (configuration not stated),Potency,[1],inactive
same,Potency,[9],inactive
CC(C)(C)c1onc(OCP(=O)(O)O)c1CC(N)C(=O)O (configuration not stated),Potency,[10],inactive
same,Potency,[11],inactive
same,Potency,[4],"inconclusive: 37.9 µM [falling, single point]"
same,Potency,[8],inactive
O[Si](CCCN1CCCCC1)(c1ccc(F)cc1)C1CCCCC1 (configuration not stated),Potency,[2],"inconclusive: 12.6 µM [activator, single point]"
same,Potency,[10],"inconclusive: 11.2 µM [activator, partial curve]"
same,Potency,[3],"inconclusive: 23.1 µM [activator, partial curve, poor fit]"
same,Potency,[12],inactive
same,Potency,[6],"inconclusive: 22.4 µM [cytotoxic, partial curve, poor fit]"
same,Potency,[8],"inconclusive: 11.2 µM [inhibitor, partial curve, poor fit]"
Nc1nc(Cl)nc2c1ncn2[C@@H]1O[C@H](COP(=O)(O)OP(=O)(O)OP(=O)(O)O)[C@@H](O)[C@H]1O,Potency,[10],active: 0.891 µM
same,Potency,[13],"inconclusive: 82 nM [activator, full curve, poor fit]"
same,Potency,[9],inactive
same,Potency,[4],active: 30.1 µM
same,Potency,[6],inactive
CN1CCN(C2Cc3ccccc3Sc3ccc(Cl)cc32)CC1 (configuration not stated),Potency,[2],"inconclusive: 12.6 µM [activator, single point]"
same,Potency,[10],"inconclusive: 11.2 µM [activator, partial curve]"
same,Potency,[7],"inconclusive: 29.1 µM [inhibitor, single point]"
same,Potency,[5],"inconclusive: 56.2 µM [inhibitor, partial curve, poor fit] and inconclusive: 63.1 µM [inhibitor, partial curve, poor fit]"
same,Potency,[6],active: 17.8 µM
same,Potency,[8],active: 12.6 µM
COc1ccc(NC(=O)/C=C/c2ccc(Cl)cc2)cc1,Potency,[1],"inconclusive: 89.1 µM [inhibitor, single point]"
same,Potency,[7],"inconclusive: 0.73 µM [activator, full curve, poor fit]"
same,Potency,[12],"inconclusive: 37.9 µM [inhibitor, single point]"
same,Potency,[14],"inconclusive: 37.9 µM [inhibitor, single point]"
same,Potency,[15],"inconclusive: 521 nM [activator, partial curve, poor fit]"
same,Potency,[5],"inconclusive: 56.2 µM [inhibitor, partial curve, poor fit]"
N[C@H]1CONC1=O,Potency,[1],inactive
same,Potency,[8],inactive
CCN1/C(=C/C(C)=O)Sc2ccc(OC)cc21,Potency,[1],"inconclusive: 50.1 µM [inhibitor, partial curve]"
same,Potency,[7],"inconclusive: 20.6 µM [inhibitor, single point]"
same,Potency,[5],inactive
same,Potency,[8],"inconclusive: 20 µM [inhibitor, partial curve, poor fit]"
CSc1ccc2c(c1)C(N1CCN(C)CC1)Cc1ccccc1S2 (configuration not stated),Potency,[1],active: 39.8 µM
same,Potency,[7],"inconclusive: 25.9 µM [inhibitor, single point]"
same,Potency,[5],"inconclusive: 44.7 µM [inhibitor, partial curve, poor fit] and inconclusive: 56.2 µM [inhibitor, partial curve] and inconclusive: 50.1 µM [inhibitor, partial curve]"
same,Potency,[6],active: 31.6 µM
same,Potency,[8],active: 14.1 µM
